Laboratory results published in publication PMC12136788.
The other results are listed elsewhere or left out.

B1: ENSG00000168936:stop:overlap|stop_codon|ENSG00000168936|stop_codon|NA|stop_codon (ssRNA)
RNA: GGGAGUUCUACAGUCCGACGAUCGUGUGGCCAGCACCAACCCUGCUGUGCAGGCCUUUGACAUCUGGAGCUGGAGGCCUGCAUAGGCUGCAUGCAGACACGUGCCAGCGUGAAGCUGGUGAAGACCUGCCAGGAGGCAGCCACCAACAGAGGAUUGAGCAUCA
B2: chrX:53432280:53432385:-|CDS|ENSG00000072506|unk|total|mutant (ssRNA)
RNA: GGGAGUUCUACAGUCCGACGAUCUGAGAAGGAUGUGCAAACAGCUCUGGCUCCCGCAAAAGGAAAGUUUGGCCGUGUGGAUGCCGCUGUCAACUGUGCAGGCAUCGCGGUGGCCCGCAAGACGUACAACUUAAAGAAGGGCCACAACAGAGGAUUGAGCAUCA
B3: chr2:135840511:135840612:-|3pUTR|ENSG00000076003|msi1|FALSE|unique (ssRNA)
RNA: GGGAGUUCUACAGUCCGACGAUCGCUUCAGCACUUCCUUUGGUGUGUUUCCUGUCCCAGUGAAGUUGGAACCAAAUAAUGUGUAGUCUCUAUAACCAAUACCUUUGUUUUCAUGUGUAAGAAAAGGCCCAUUACUUUUAAGGUCAACAGAGGAUUGAGCAUCA
B4: chr6:36232219:36232320:+|3pUTR|ENSG00000096070|unk|FALSE|unique (ssRNA)
RNA: GGGAGUUCUACAGUCCGACGAUCGCUAGGGAAGGACAUGGUGUAUAUAAUUGUAAAAUACUGUUCUAAAUUAUUCAGGCCUAUAGUUUCCAUUACUGGAGUCCUCCAUUGUGUGGCCACACAGUGUCGUUGAUUUAAAGGAGCCAACAGAGGAUUGAGCAUCA
B5: chr11:134382709:134383006:-|CDS|ENSG00000109956|control|control|control (ssRNA)
RNA: GGGAGUUCUACAGUCCGACGAUCCGGGGCAGGGAAGGUGGUCGGCUGGAAGACGGUGUUUGACCCCCACCGGCCAUUUGCAAUAGACAUGGCUGGAUUUGCCGUCAACCUGCGGCUCAUUCUGCAGCGAAGCCAGGCCUACUUCAACAGAGGAUUGAGCAUCA
B6: chr5:173316791:173316892:-|3pUTR|ENSG00000113739|msi1|FALSE|unique (ssRNA)
RNA: GGGAGUUCUACAGUCCGACGAUCGGAAACCUUAUACCCAGAGGAAAAUACACACCUGGGGAGUACAUUUGACAAAUUUCCCUUAGGAUUUCGUUAUCUCACCUUGACCCUCAGCCAAGAUUGGUAAAGCUGCGUCCUGGCGAUCAACAGAGGAUUGAGCAUCA
B7: chr7:139028693:139028797:-|CDS|ENSG00000146858|unk|FALSE|unique (ssRNA)
RNA: GGGAGUUCUACAGUCCGACGAUCUUUCAGAUAAUCUCCACCUACAAGCAUAUGAAGCUGCACAAGAUGCUUGAAAAUACAGGUAGGAAUAUCCAAGAAGGACAGAGAAGUAUCAGCGAUAUGGUUUUGCGAUGCUUCACUGUGCAACAGAGGAUUGAGCAUCA
B8: chr1:62864655:62864756:+|3pUTR|ENSG00000125703|unk|FALSE|unique (ssRNA)
RNA: GGGAGUUCUACAGUCCGACGAUCUUUGUUAACUGUGAUAUGCAUACACUUAUAUAAGCAGAAUUAUGAGUUAAAGUAAUACUUAGCAAUAUGAUUUUAUAAUGGCUCCUCAUUAUGCUUGCUGUUGAACCUUUUAUGAGGAGUCAACAGAGGAUUGAGCAUCA
B9: chr1:167421552:167421653:+|3pUTR|ENSG00000143190|unk|FALSE|unique (ssRNA)
RNA: GGGAGUUCUACAGUCCGACGAUCUUUUCUUCUAACCUUAUUCAUUAAGUAGUUCCUUGUUUUGGCCCUUCUACUCUUGGCCUUAGCUAAAAGCAGUAAAUGUGAGUGAAUUUUAUGUUGAUUAUGUCACCUGGAUCUCCUUUCCAACAGAGGAUUGAGCAUCA
B10: chr8:52110837:52113338:-|three_prime_utr|ENSG00000147488|control|control|control (ssRNA)
RNA: GGGAGUUCUACAGUCCGACGAUCCCCCGGAAUGCAAAGCUCUACUGGAAAGUAUCAAACAGGCAGUGAAGGGUAUCCAUGUGUAGGAUCACAGCGCUGCCGGGCAACAGAAGUUACCAACAGCAGUAAACUCCAGAUGGAUCUCAACAGAGGAUUGAGCAUCA
B11: chr20:57651677:57651767:-|3pUTR|ENSG00000124225|msi1_unk|total|mutant (ssRNA)
RNA: GGGAGUUCUACAGUCCGACGAUCGUUGAGCUGUGUCUUGAAGGCAAAAGAAAAAAAAUUUCUACAGCCGUCUUUCUUGUUUCCCGUUGAGCUGCGUGCGUGAAUGCUUAUUUUCUUUUGUUUAUGAUAAUUUCACUUAACUUUCAACAGAGGAUUGAGCAUCA
B12: chr11:56232108:56233062:-|CDS|ENSG00000181718|control|control|control (ssRNA)
RNA: GGGAGUUCUACAGUCCGACGAUCGACAAUCCUCUUCAUGUAUGUGAGACCAAGUUCCAGCUAUGCUUCGGACCAUGACAUGAUAGUGUCAAUAUUUUACACCAUUGUGAUUCCCUUGCUGAAUCCCGUCAUCUACAGUUUGAGCAACAGAGGAUUGAGCAUCA
B13: chr1:93353930:93354034:+|CDS|ENSG00000117505|unk|FALSE|unique (ssRNA)
RNA: GGGAGUUCUACAGUCCGACGAUCUUUGGGAUUUGGCUCUUACAUCAGUGAAGUAAAAGAAGUCUUGCAAGAGUGUAAAACAGUAGCAUUAAAAAGAAGAAAGGCCAGUUCUCGUUUGGAAAACCUUGGCAUUCCUGAAGAAGACAACAGAGGAUUGAGCAUCA
B14: chr1:1785892:1785993:-|3pUTR|ENSG00000078369|msi1|FALSE|unique (ssRNA)
RNA: GGGAGUUCUACAGUCCGACGAUCUUUACUCUUAGAAUCGCAUGCUGUAGAAAUGCUCAAAAGUGCAUAUGGGACUCAGUCCUUAGGUGUUCUUUUUCUUUUAAGAAAUAACCUCUUACAGUUGUAACCAUUGCGGCUCUGUCCCAACAGAGGAUUGAGCAUCA
B15: chr18:21869459:21869560:+|3pUTR|ENSG00000101752|msi1|FALSE|unique (ssRNA)
RNA: GGGAGUUCUACAGUCCGACGAUCUAAAAGAUGGUCUUUAGUGCACGUGUAUCAUUAUAUACACGUUUUAAAGUCAUAUUGCUUAGCUUGUUAAUAAUGAUUCUGCAUGUGUGCUGGGUUUGGGUAAUUCUUUAAAGGAAGUUUCAACAGAGGAUUGAGCAUCA
B16: chr11:69651811:69651939:+|3pUTR|ENSG00000110092|msi1_unk|total|mutant (ssRNA)
RNA: GGGAGUUCUACAGUCCGACGAUCUAAAGCACAGCUGCCGUGGGGUUCCCGGCAUCUCUGUACUUUGCUUGCUCAUAUGCAUGCCGUCACUUUAUAAGUCAUUGUAUGUUAUUAUAUUCCGCCGGCCGAUGUGUAACCUCUUCACAACAGAGGAUUGAGCAUCA
B17: chr5:72207278:72207408:+|3pUTR|ENSG00000131711|msi1_unk|FALSE|overlapping (ssRNA)
RNA: GGGAGUUCUACAGUCCGACGAUCAGAGAACAAUGACCUCAUUUUAUUUUCUAUGUUAGUUAUUUAUUUCAAAAUUAACAUUUUAGUUGAUUUUUGUCUGAUAAGUCUAUGUUUUGCACUGCUAACUAUGAUGAGGGUUUAAAACAACAGAGGAUUGAGCAUCA
B18: chr17:4937608:4937709:-|3pUTR|ENSG00000108528|msi1|total|mutant (ssRNA)
RNA: GGGAGUUCUACAGUCCGACGAUCAAGCGUCUCUUCCUCAGUGGCUGAAGCGGCCGGGGGCUCCCACUCGCCUGCUGCGCCUACCGCCACUGCGCCCUGGGGGCCUGGGCUCUGCUGCCCUGGACCCCUCUAUUUAUUUCCCUUCAACAGAGGAUUGAGCAUCA
B19: chr3:81489889:81489990:-|3pUTR|ENSG00000114480|msi1|total|mutant (ssRNA)
RNA: GGGAGUUCUACAGUCCGACGAUCUUGGUCUAAAUUAUGAGGUACCAAGAUUGUUUCUUUGUUUCUUUUUUUCAAAUUGUGUUCCGAAAUACUGUAAUAAAUAUGCAGCCGUGAUAUAAAGAAUUAUAUCCAAGGUAAUAUAAACAACAGAGGAUUGAGCAUCA
B20: chr11:108393207:108393378:-|CDS|ENSG00000166323|control|control|control (ssRNA)
RNA: GGGAGUUCUACAGUCCGACGAUCUCUAGGACUAAUUCACACUGCAACAAAGGGGCUGAUUAGAGCUUUUGAAGAUGGGGGGAUAGAUUCUGUGAUGGAAUGGGAAGUGGAUGAAGUGCUGAACUGGACAAAUACACUGAACUUCAACAGAGGAUUGAGCAUCA
B21: chr2:88557131:88557241:-|3pUTR|ENSG00000172071|msi1|FALSE|unique (ssRNA)
RNA: GGGAGUUCUACAGUCCGACGAUCGAGGACAAGUAGCACAAACUGUAUAACGGUUUAUGUCCGUAGUUUUAUAGUCCUAUUUGUAGCAUUCAAUAGCUUUAUUCCUUAGAUGGUUCUAGGGUGGGUUUACAGCUUUUUGUACUUCAACAGAGGAUUGAGCAUCA
B22: chr5:72209348:72209524:+|3pUTR|ENSG00000131711|msi1_unk|total|mutant (ssRNA)
RNA: GGGAGUUCUACAGUCCGACGAUCUUAUGUCUUAUAAUCCUGCAUCACUUCUAUCCUAUCCAGUCAUAUCUAAUGCCGAAAAUCCGUUUCCAGUGAAAGUAAUAUGCCGUGCUUUUAUGAUAUUUGUGUGCAAUAUCCCCUCUUCAACAGAGGAUUGAGCAUCA

These binders were tested against MSI1 full-length (mouse, UniProt Q61474 1-362) (assay: nsRBNS (natural sequence RNA bind-n-seq); RBNS binding buffer (assumed for nsRBNS): 25 mM Tris pH 7.5, 150 mM KCl, 3 mM MgCl2, 0.01% Triton X-100, 500 ug/ml BSA, 20 U/ml SUPERase-In, 4 C; UNK is unkempt and MSI1 is Musashi-1; names of the RNAs are library labels; protein concentration not given here; high values mean tight binding).
UniProt Q61474, sequence (Q61474 whole entry): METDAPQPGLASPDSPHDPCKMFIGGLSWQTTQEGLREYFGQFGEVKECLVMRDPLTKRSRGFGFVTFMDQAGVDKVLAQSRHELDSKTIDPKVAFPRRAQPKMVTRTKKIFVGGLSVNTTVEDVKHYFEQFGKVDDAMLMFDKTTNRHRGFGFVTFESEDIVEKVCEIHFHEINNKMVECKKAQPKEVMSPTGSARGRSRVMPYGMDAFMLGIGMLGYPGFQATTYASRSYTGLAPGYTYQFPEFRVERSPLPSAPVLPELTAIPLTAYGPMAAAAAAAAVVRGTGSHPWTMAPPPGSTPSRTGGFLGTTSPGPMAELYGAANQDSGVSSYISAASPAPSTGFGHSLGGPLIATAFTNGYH

Binder	binding signal [enrichment R]
B1	3.64
B2	0.359
B3	0.858
B4	1.86
B5	0.563
B6	0.381
B7	0.218
B8	0.957
B9	3.1
B10	0.319
B11	0.725
B12	0.207
B13	3.44
B14	0.395
B15	0.4
B16	0.426
B17	1.11
B18	0.667
B19	0.643
B20	0.767
B21	14.3
B22	0.64
